Hit rate of the full screen: of about 310,000 compounds, about 2,200 (0.71%) showed an effect of 50% or more. The effect is printed as a negative number. This is one part of the list.

In the experiment the target is human ether-à-go-go-related gene (hERG) potassium channel (human, UniProt Q12809). Kind of experiment: primary screen, population patch clamp on CHO cells stably expressing hERG.
human ether-à-go-go-related gene (hERG) potassium channel, sequence (Q12809 whole entry, looked up): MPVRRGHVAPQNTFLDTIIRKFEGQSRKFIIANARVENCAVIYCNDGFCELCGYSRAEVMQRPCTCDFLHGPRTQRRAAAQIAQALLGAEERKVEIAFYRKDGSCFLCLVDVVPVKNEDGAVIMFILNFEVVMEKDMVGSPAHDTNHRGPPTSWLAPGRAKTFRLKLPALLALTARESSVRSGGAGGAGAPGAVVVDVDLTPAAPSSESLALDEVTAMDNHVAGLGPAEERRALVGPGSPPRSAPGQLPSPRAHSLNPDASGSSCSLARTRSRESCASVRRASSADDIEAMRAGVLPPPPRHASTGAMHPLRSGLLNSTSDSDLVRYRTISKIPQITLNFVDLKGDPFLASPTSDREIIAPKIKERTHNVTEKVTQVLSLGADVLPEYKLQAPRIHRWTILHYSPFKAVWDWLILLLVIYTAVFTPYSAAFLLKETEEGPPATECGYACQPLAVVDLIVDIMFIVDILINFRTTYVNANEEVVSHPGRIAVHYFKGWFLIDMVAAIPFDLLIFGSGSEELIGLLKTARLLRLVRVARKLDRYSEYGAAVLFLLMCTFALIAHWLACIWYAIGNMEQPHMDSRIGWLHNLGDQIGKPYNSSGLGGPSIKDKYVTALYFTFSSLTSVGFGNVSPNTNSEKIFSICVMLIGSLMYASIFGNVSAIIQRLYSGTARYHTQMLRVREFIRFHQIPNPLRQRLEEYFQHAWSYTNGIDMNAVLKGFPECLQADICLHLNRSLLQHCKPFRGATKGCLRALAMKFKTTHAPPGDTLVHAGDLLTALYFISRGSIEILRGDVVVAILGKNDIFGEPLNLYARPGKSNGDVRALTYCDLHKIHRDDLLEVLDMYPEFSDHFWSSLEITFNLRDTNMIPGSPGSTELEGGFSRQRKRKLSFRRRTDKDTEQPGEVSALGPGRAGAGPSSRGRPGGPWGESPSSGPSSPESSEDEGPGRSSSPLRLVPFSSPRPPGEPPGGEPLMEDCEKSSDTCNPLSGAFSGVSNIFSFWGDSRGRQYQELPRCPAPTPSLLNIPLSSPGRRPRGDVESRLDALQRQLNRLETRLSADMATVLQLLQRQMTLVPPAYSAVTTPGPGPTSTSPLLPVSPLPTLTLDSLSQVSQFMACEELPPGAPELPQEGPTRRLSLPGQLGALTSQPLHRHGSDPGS
Consider `O=c1cc(-c2ccc(O)c(O)c2)oc2c1ccc1ccccc12`, for which the “hERG current change (%, negative = inhibition) at 1uM” value was 12.5%.
As for `Cc1cc(O)ccc1Nc1nc(-c2cccs2)cs1`, the figure is 5.07%; as for `Cc1cnc2c(C(=O)O)cnn2c1`, 14.7%; as for `CC(C)CC(=O)N1CCC(O)(CS(=O)(=O)c2ccc(Cl)c(Cl)c2)CC1`, 2.83%.
For the compound `O=S(=O)(c1cccc(-c2n[nH]c(=S)o2)c1)N1CCOCC1`, the “hERG current change (%, negative = inhibition) at 1uM” value is 13.7%.
As to `COCCCNC(=O)Cn1ncc2ccsc2c1=O`, the “hERG current change (%, negative = inhibition) at 1uM” value amounted to 11.1%.
On to `CC1CCCCN1C(=O)Nc1ccccc1Cl` (stereo not drawn), for which the “hERG current change (%, negative = inhibition) at 1uM” value is on record as 4.9%.
As for `CCN1C(=O)[C@@H]2[C@@H](c3ccc(-c4ccc5c(c4)OCO5)c(OC)c3)N3CCC[C@@]3(C(=O)OC)[C@@H]2C1=O.O=C(O)C(F)(F)F`, the figure is -5.04%; as for `Cl.O=C(NC1=NCCS1)c1cc(-c2cccnc2)nc2ccccc12`, 6.83%.
For `COc1cc2c(c(OC)c1OC)-c1ccc(N(C)CC(OC)OC)c(=O)cc1[C@@H](NC(C)=O)CC2`, the “hERG current change (%, negative = inhibition) at 1uM” value turned out to be 13.1%.
The value for `O=C(OC1CCOC1=O)c1ccc(Cl)c(S(=O)(=O)N2CCOCC2)c1` (stereo not drawn) was 4.1%.
For `COc1ccccc1N1CCN(S(=O)(=O)c2ccc(-c3ccc(=O)[nH]n3)o2)CC1`, the “hERG current change (%, negative = inhibition) at 1uM” value is listed as 11.5%.
The value for `Cc1ccnc(SCC(=O)c2cc3ccccc3o2)n1` was -0.772%.
As for `O=C(NCC(=O)N(Cc1ccccc1)C(C(=O)NCC1CCCO1)c1ccccc1)c1cccs1` (stereo not drawn), the figure is 10.7%.
As for `Cn1c(=O)c2c(nc(N/N=C/c3cccs3)n2Cc2ccc(Br)cc2)n(C)c1=O`, the figure is 5.98%; as for `COC(=O)C1=C(c2ccc(F)cc2OCc2ccccc2)C[C@@H]2CC[C@H]1N2C(=O)NCc1ccccc1OC`, 10.8%; as for `O=C(c1ccc2c(c1)OCO2)C1CCCN(Cc2cccn2-c2cccnc2)C1` (stereo not drawn), -14.6%.
For the compound `CCCOc1ccc(C2NC(=S)NC(c3ccccc3)=C2C(=O)Nc2ccc(C)cc2)cc1OC` (stereo not drawn), the “hERG current change (%, negative = inhibition) at 1uM” value stood at 11.1%.
As for `Cl.c1ccc2c(CN3CCCCCC3)c[nH]c2c1`, the figure is -1.63%.
The value for `Cn1c(=O)c2c(ncn2CC(=O)N2CCN(c3cccc(Cl)c3)CC2)n(C)c1=O` was -43.9%; that for `O=S(=O)(c1ccc(F)cc1)N1CCN(Cc2nnc(-c3ccccc3)o2)CC1` was -5%.
Consider `Cc1ccc(OCC(=O)NNC(=O)c2cc(C)[nH]n2)cc1`, for which the “hERG current change (%, negative = inhibition) at 1uM” value was found to be 17.2%.
As for `Cc1cc2cc(CCNC(=O)c3ccc(S(=O)(=O)N4CCCC4)cc3)c(=O)[nH]c2cc1C`, the figure is 2.54%; as for `NS(=O)(=O)c1cccc(NC(=O)c2cccc3c(Br)cccc23)c1`, 25.3%; as for `Cc1ccc2nc(C)c(Cl)c(=O)n2c1`, 10.3%.
As for `O=C(CCCc1ccccc1)NCc1ccc(F)cc1`, the figure is 5.77%.
As for `O=C(Nc1ccc(N2CCN(C(=O)c3ccccc3)CC2)c(Cl)c1)c1ncn[nH]1`, the figure is 2.09%; as for `COCCNC(=O)c1cc2c3ccccc3n(C)c2s1`, 14.2%; as for `CCOc1ccc(-n2c(C)nnc2SCC(=O)N(CC)CC)cc1`, 7.32%.
Regarding `O=C(O)CSc1ncnc2sc(-c3ccccc3)cc12`, the “hERG current change (%, negative = inhibition) at 1uM” value turned out to be 4.07%.
As for `CCOc1ccc(-c2csc(N)c2C(=O)OC)cc1`, the figure is 11.4%.
As for `CC(C)CCN1CCN(Cc2nc3ccccc3s2)CC1CCO` (stereo not drawn), the figure is -8.09%.
As for `CCC(=O)N1CCN(c2ccc(NC(=O)c3c(F)c(F)c(OC)c(F)c3F)cc2)CC1`, the figure is 2.37%.
As to `O=C(c1ccc2c(c1)OCO2)C1CCCN(Cc2cccc(C(F)(F)F)c2)C1` (stereo not drawn), the “hERG current change (%, negative = inhibition) at 1uM” value is on record as -0.222%.
The value for `CN(C(=O)C1CCCN(S(=O)(=O)c2cccc([N+](=O)[O-])c2)C1)C1CCS(=O)(=O)C1` (stereo not drawn) was 5.6%; that for `COc1ccc(C2C3=C(CC(C)(C)CC3=O)N(CCN3CCOCC3)C3=C2C(=O)CC(C)(C)C3)cc1` was 7.6%; that for `CCC(C)(C)NC(=O)C(c1ccncc1)N(C(=O)Cn1nnc2ccccc21)c1cc2c(cc1C(C)=O)OCO2` (stereo not drawn) was 3.8%.
The value for `CCOCCCn1c(SCC(=O)Nc2cc(OC)ccc2OC)nc2ccccc2c1=O` was -13.7%.
As for `C=CCN1C(=O)c2ccc(C(=O)N3CCN(S(=O)(=O)c4cccc(F)c4)CC3)cc2C1=O`, the figure is 13.7%.
`CC(NC(=O)Cc1ccccc1)c1ccc(F)cc1` (stereo not drawn): the “hERG current change (%, negative = inhibition) at 1uM” value was 26%.
Consider `COc1ccc(C(=O)NNC(=O)CSc2ccccc2)cc1`, for which the “hERG current change (%, negative = inhibition) at 1uM” value was determined as 11%.
As for `CCCc1cc(=O)oc2c(CN3CCN(C)CC3)c(O)c(Cl)cc12`, the figure is 6.53%; as for `Cc1cc(=O)n2[nH]c(Nc3cccc(Cl)c3)nc2n1`, 17.6%.
On to `O=C(Cc1ccc(-c2ccccc2)cc1)N1CCOCC1`, for which the “hERG current change (%, negative = inhibition) at 1uM” value is given as 7.08%.
For the compound `O=C(CSc1nnc(CNC(=O)c2ccc(F)cc2)o1)Nc1nccs1`, the “hERG current change (%, negative = inhibition) at 1uM” value worked out at 13.2%.
As for `COc1ccccc1CN1CCCCC1c1cccnc1` (stereo not drawn), the figure is 0.665%.
As for `c1coc(C2=Nc3cccc4cccc(c34)N2)c1`, the figure is 12%.
Consider `CCOCCCNC(=O)C1CCN(S(=O)(=O)CC)CC1`, for which the “hERG current change (%, negative = inhibition) at 1uM” value turned out to be 6.21%.
The value for `Cc1nn(-c2ccccc2)c(C)c1NC(=O)COC(=O)c1ccc(Cl)c(S(N)(=O)=O)c1` was 1.42%; that for `O=C(COC(=O)/C=C/c1cccs1)NC1CC1` was 7.72%; that for `O=C(CSc1nnc(-c2ccco2)n1CC1CCCO1)NC1CCCC1` (stereo not drawn) was 4.72%.
The value for `Cc1ccc(OCC(O)Cn2c(N3CCOCC3)nc3c2c(=O)[nH]c(=O)n3C)cc1` (stereo not drawn) was 6.77%.
The value for `CSc1ccccc1OCc1cc(C(=O)NCCCn2nc(C)cc2C)no1` was -3.19%.
As for `CNC(=O)c1ccsc1NC(=O)c1ccc2c(c1)CCCC2`, the “hERG current change (%, negative = inhibition) at 1uM” value is 2.22%.
As for `CCCC1CCC(=NNS(=O)(=O)c2ccc(C)c([N+](=O)[O-])c2)CC1` (stereo not drawn), the “hERG current change (%, negative = inhibition) at 1uM” value came out at 15.5%.
For the compound `C=CCNc1nc(N)c([N+](=O)[O-])c(Nc2cccc(Cl)c2)n1`, the “hERG current change (%, negative = inhibition) at 1uM” value is 6.59%.
As for `Cc1nonc1OCCNc1ccc([N+](=O)[O-])c2cccnc12`, the “hERG current change (%, negative = inhibition) at 1uM” value was 9.85%.
As for `CCOC(=O)c1cc(C#N)c(N2CCCCC2)nc1-c1ccccc1`, the figure is 9.34%.
In the case of `CCS(=O)(=O)Nc1cc2c3c(c1)CCC(=O)N3CCC2`, the “hERG current change (%, negative = inhibition) at 1uM” value is given as 20.4%.
As to `Cc1cc(NC(=O)Nc2cccc(C(F)(F)F)c2)n(C)n1`, the “hERG current change (%, negative = inhibition) at 1uM” value came to 5.49%.
As for `COc1cccc(N2CCN(C(=O)c3ccc4nc[nH]c4c3)CC2)c1`, the figure is 11%; as for `CN1C(=O)C(=O)/C(=C(/O)c2ccccc2)C1c1ccccc1` (stereo not drawn), 15%.
As for `Cc1c(NC(=O)COC(=O)c2cc3c4ccccc4n(C)c3s2)c(=O)n(-c2ccccc2)n1C`, the figure is 17.3%; as for `N/C(=N\OC(=O)/C=C/c1ccccc1)c1cccnc1`, 7.56%.
As to `N#Cc1ccc(C(=O)OCC(=O)Nc2ccc(N3CCOCC3)cc2)cc1`, the “hERG current change (%, negative = inhibition) at 1uM” value is on record as 8.85%.
As for `CCCN(C(=O)CCOc1ccc(C(C)(C)C)cc1)c1c(N)n(Cc2ccccc2)c(=O)[nH]c1=O`, the figure is 18%; as for `Cn1c(=O)c2c(SCC(=O)NCc3ccco3)nc(-c3ccccc3Cl)nc2n(C)c1=O`, 9.32%.
The value for `O=C(COC(=O)Cc1ccccc1F)Nc1ccc2c(c1)OCO2` was 10.2%; that for `COc1ccccc1C(=O)Nc1ccc(NC(=O)c2ccco2)c(C)c1` was 12.8%.
The value for `COc1cccc(/C=C/C(=O)OCC(=O)NCc2ccc(Cl)cc2)c1` was 13.1%; that for `COc1ccc(NC(=O)CC2SC(=Nc3ccccc3)NC2=O)cc1` (stereo not drawn) was 4.81%.
For `Cc1ccc2c(NC(=O)c3ccc(Br)o3)cccc2n1`, the “hERG current change (%, negative = inhibition) at 1uM” value is 10.9%.
The value for `CCOC(=O)c1ccc(NC(=S)N2CCCC(C(=O)OCC)C2)cc1` (stereo not drawn) was 7.55%; that for `CCCc1cc(=O)oc2cc(OCC(=O)NCC(O)c3ccccc3)ccc12` (stereo not drawn) was 21.5%.
As for `COc1ccc([N+](=O)[O-])cc1NC(=O)c1cncc(Br)c1`, the figure is 3.96%; as for `Cc1ccccc1NC(=O)C1=CC=CN2CCS(=O)(=O)N=C12`, 6.16%.
Consider `CCOc1cc(N2C(=O)CC3CS(=O)(=O)CC32)c(OCC)cc1NC(=O)c1ccccc1` (stereo not drawn), for which the “hERG current change (%, negative = inhibition) at 1uM” value is on record as 7.45%.
As for `CCOc1ccc(-n2c(CC)nc3ccccc3c2=O)cc1`, the figure is 14.1%; as for `Cc1c2cnn(CC(=O)NCCN3CCOCC3)c(=O)c2c(C)n1Cc1ccc(F)cc1`, 11.9%; as for `CCOc1ccccc1NC(=O)c1cc(S(=O)(=O)N2CCC3(CC2)OCCO3)ccc1F`, -3.87%.
As for `CC1c2ccsc2CCN1S(=O)(=O)c1cccs1` (stereo not drawn), the figure is 5.14%; as for `CCN1CCN(CCNC(=O)c2ccc(/C=C3/Sc4ccccc4N(Cc4cccc(Cl)c4)C3=O)cc2)CC1`, 10.3%; as for `COc1ccc(N=C2CCCN2CC(N)=O)cc1.Cl`, 2.76%.
The value for `COc1ccc(C(=O)Nc2cc3c4c(c2)C(C)C(=O)N4CCC3)cc1OC` (stereo not drawn) was 1.64%; that for `NC(=O)C1CCN(C(=O)CC2C(=O)NCCN2Cc2cccc(Oc3ccccc3)c2)CC1` (stereo not drawn) was 9.04%.
On to `Nc1ccc(C(=O)OCc2nc3cc4ccccc4cc3[nH]2)cc1`, for which the “hERG current change (%, negative = inhibition) at 1uM” value came out at 15.8%.
In the case of `CCOC(=O)c1sc(NC(=O)c2cc3n(n2)C(C(F)(F)F)CC(c2cccs2)N3)c(C(=O)OCC)c1C` (stereo not drawn), the “hERG current change (%, negative = inhibition) at 1uM” value was 5.02%.
